Test results published in patent US20190367516A1 (Bayer Pharma Aktiengesellschaft, priority 2015, published 2019).

Target: T1, human M2 receptor (Homo sapiens, UniProt P08172)
T1 sequence (P08172 1-466): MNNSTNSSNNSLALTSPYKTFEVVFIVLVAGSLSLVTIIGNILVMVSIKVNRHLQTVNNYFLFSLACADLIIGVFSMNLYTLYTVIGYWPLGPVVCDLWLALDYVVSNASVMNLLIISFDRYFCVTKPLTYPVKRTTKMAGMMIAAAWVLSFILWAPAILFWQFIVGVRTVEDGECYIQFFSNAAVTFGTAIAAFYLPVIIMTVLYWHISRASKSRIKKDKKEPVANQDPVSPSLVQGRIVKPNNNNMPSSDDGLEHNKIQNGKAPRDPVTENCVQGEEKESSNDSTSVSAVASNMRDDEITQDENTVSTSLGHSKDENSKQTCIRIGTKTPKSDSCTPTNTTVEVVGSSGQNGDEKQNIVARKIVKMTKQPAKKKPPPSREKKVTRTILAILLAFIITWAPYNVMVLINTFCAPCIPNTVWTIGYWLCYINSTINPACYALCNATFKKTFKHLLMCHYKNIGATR
Details: read-out: Efficiency, M2-GIRK1/4 activation test; boosting of the acetylcholine effect at an EC20 acetylcholine concentration

Row | SMILES | Emax [%]
1 | O=C(NC12CC3CC(F)(CC(F)(C3)C1)C2)c1cn(-c2ccc(F)cc2F)c2nc(NCC(F)(F)F)ccc2c1=O [Example 92, 1-(2,4-Difluorophenyl)-N-(3,5-difluorotricyclo[3.3.1.1^3,7]dec-1-yl)-4-oxo-7-[(2,2,2-trifluoroethyl)amino]-1,4-dihydro-1,8-naphthyridine-3-carboxamide] | 95.5
2 | CC(NC(=O)c1cn(-c2ccc(F)cc2F)c2nc(NCC(F)(F)F)ccc2c1=O)C(F)(F)F (centres unmarked) [Example 93, 1-(2,4-Difluorophenyl)-4-oxo-7-[(2,2,2-trifluoroethyl)amino]-N-[1,1,1-trifluoropropan-2-yl]-1,4-dihydro-1,8-naphthyridine-3-carboxamide] | 85.7
3 | CC[C@@H](NC(=O)c1cn(-c2ccc(F)cc2F)c2nc(NCC(F)(F)F)ccc2c1=O)C(F)(F)F [Example 94, 1-(2,4-Difluorophenyl)-4-oxo-N-[(2R)-1,1,1-trifluorobutan-2-yl]-7-[(2,2,2-trifluoroethyl)amino]-1,4-dihydro-1,8-naphthyridine-3-carboxamide] | 98.7
4 | O=C(NC1(C(F)(F)F)CCCC1)c1cn(-c2ccc(F)cc2F)c2nc(NCC(F)(F)F)ccc2c1=O [Example 96, 1-(2,4-Difluorophenyl)-4-oxo-7-[(2,2,2-trifluoroethyl)amino]-N-[1-(trifluoromethyl)cyclopentyl]-1,4-dihydro-1,8-naphthyridine-3-carboxamide] | 92.3
5 | O=C(NC12CCC(F)(CC1)CC2)c1cn(-c2ccc(F)cc2F)c2nc(NCC(F)(F)F)ccc2c1=O [Example 97, 1-(2,4-Difluorophenyl)-N-(4-fluorobicyclo[2.2.2]oct-1-yl)-4-oxo-7-[(2,2,2-trifluoroethyl)amino]-1,4-dihydro-1,8-naphthyridine-3-carboxamide] | 95
6 | CC12CCC(NC(=O)c3cn(-c4ccc(F)cc4F)c4nc(NCC(F)(F)F)ccc4c3=O)(CC1)CC2 [Example 98, 1-(2,4-Difluorophenyl)-N-(4-methylbicyclo[2.2.2]oct-1-yl)-4-oxo-7-[(2,2,2-trifluoroethyl)amino]-1,4-dihydro-1,8-naphthyridine-3-carboxamide] | 97.4
7 | CN(CCF)c1ccc2c(=O)c(C(=O)NC34CC5CC(CC(C5)C3)C4)cn(-c3ccc(F)cc3F)c2n1 [Example 101, 1-(2,4-Difluorophenyl)-7-[(2-fluoroethyl)(methyl)amino]-4-oxo-N-(tricyclo[3.3.1.1^3,7]dec-1-yl)-1,4-dihydro-1,8-naphthyridine-3-carboxamide] | 76.8
8 | CN(CCF)c1ccc2c(=O)c(C(=O)NC34CC5CC(CC(F)(C5)C3)C4)cn(-c3ccc(F)cc3F)c2n1 [Example 102, 1-(2,4-Difluorophenyl)-7-[(2-fluoroethyl)(methyl)amino]-N-(3-fluorotricyclo[3.3.1.1^3,7]dec-1-yl)-4-oxo-1,4-dihydro-1,8-naphthyridine-3-carboxamide] | 94
9 | CC[C@H](NC(=O)c1cn(-c2ccc(F)cc2F)c2nc(N(C)CCF)ccc2c1=O)C(F)(F)F [Example 103, 1-(2,4-Difluorophenyl)-7-[(2-fluoroethyl)(methyl)amino]-4-oxo-N-[(2S)-1,1,1-trifluorobutan-2-yl]-1,4-dihydro-1,8-naphthyridine-3-carboxamide] | 95.7
10 | CCCC(NC(=O)c1cn(-c2ccc(F)cc2F)c2nc(N(C)CCF)ccc2c1=O)C(F)(F)F (centres unmarked) [Example 106, 1-(2,4-Difluorophenyl)-7-[(2-fluoroethyl)(methyl)amino]-4-oxo-N-[1,1,1-trifluoropentan-2-yl]-1,4-dihydro-1,8-naphthyridine-3-carboxamide] | 100
11 | CC(C)C(NC(=O)c1cn(-c2ccc(F)cc2F)c2nc(N(C)CCF)ccc2c1=O)C(F)(F)F (centres unmarked) [Example 108, 1-(2,4-Difluorophenyl)-7-[(2-fluoroethyl)(methyl)amino]-4-oxo-N-[1,1,1-trifluoro-3-methylbutan-2-yl]-1,4-dihydro-1,8-naphthyridine-3-carboxamide] | 95
12 | CN(CCF)c1ccc2c(=O)c(C(=O)NC3(C(F)(F)F)CC3)cn(-c3ccc(F)cc3F)c2n1 [Example 109, 1-(2,4-Difluorophenyl)-7-[(2-fluoroethyl)(methyl)amino]-4-oxo-N-[1-(trifluoromethyl)cyclopropyl]-1,4-dihydro-1,8-naphthyridine-3-carboxamide] | 95
13 | CN(CCF)c1ccc2c(=O)c(C(=O)NC34CCC(F)(CC3)CC4)cn(-c3ccc(F)cc3F)c2n1 [Example 110, 1-(2,4-Difluorophenyl)-N-(4-fluorobicyclo[2.2.2]oct-1-yl)-7-[(2-fluoroethyl)(methyl)amino]-4-oxo-1,4-dihydro-1,8-naphthyridine-3-carboxamide] | 98
14 | CN(CCF)c1ccc2c(=O)c(C(=O)NC(C(F)(F)F)C(F)(F)F)cn(-c3ccc(F)cc3F)c2n1 [Example 111, 1-(2,4-Difluorophenyl)-7-[(2-fluoroethyl)(methyl)amino]-N-(1,1,1,3,3,3-hexafluoropropan-2-yl)-4-oxo-1,4-dihydro-1,8-naphthyridine-3-carboxamide] | 100
15 | CN(CC(F)F)c1ccc2c(=O)c(C(=O)NC34CC5CC(CC(C5)C3)C4)cn(-c3ccc(F)cc3F)c2n1 [Example 112, 7-[(2,2-Difluoroethyl)(methyl)amino]-1-(2,4-difluorophenyl)-4-oxo-N-(tricyclo[3.3.1.1^3,7]dec-1-yl)-1,4-dihydro-1,8-naphthyridine-3-carboxamide] | 85.5
16 | CN(CC(F)F)c1ccc2c(=O)c(C(=O)NC(C(F)(F)F)C(F)(F)F)cn(-c3ccc(F)cc3F)c2n1 [Example 115, 7-[(2,2-Difluoroethyl)(methyl)amino]-1-(2,4-difluorophenyl)-N-[1,1,1,3,3,3-hexafluoropropan-2-yl)-4-oxo-1,4-dihydro-1,8-naphthyridine-3-carboxamide] | 91
17 | O=C(NC12CC3CC(CC(C3)C1)C2)c1cn(-c2ccc(F)cc2F)c2nc(N3CCC(O)(CO)CC3)ccc2c1=O [Example 116, 1-(2,4-Difluorophenyl)-7-[4-hydroxy-4-(hydroxymethyl)piperidin-1-yl]-4-oxo-N-(tricyclo[3.3.1.1^3,7]dec-1-yl)-1,4-dihydro-1,8-naphthyridine-3-carboxamide] | 93.7
18 | O=C(NC12CC3CC(CC(C3)C1)C2)c1cn(-c2ccc(F)cc2F)c2nc(N3CCOC[C@H]3CO)ccc2c1=O [Example 117, 1-(2,4-Difluorophenyl)-7-[(3R)-3-(hydroxymethyl)morpholin-4-yl]-4-oxo-N-(tricyclo[3.3.1.1^3,7]dec-1-yl)-1,4-dihydro-1,8-naphthyridine-3-carboxamide] | 90.5
19 | O=C(NC12CC3CC(CC(C3)C1)C2)c1cn(-c2ccc(F)cc2F)c2nc(NCC(F)F)ccc2c1=O [Example 120, 7-[(2,2-Difluoroethyl)amino]-1-(2,4-difluorophenyl)-4-oxo-N-(tricyclo[3.3.1.1^3,7]dec-1-yl)-1,4-dihydro-1,8-naphthyridine-3-carboxamide] | 86.5
20 | CC[C@@H](NC(=O)c1cn(-c2ccc(F)cc2F)c2nc(NCC(F)F)ccc2c1=O)C(F)(F)F [Example 123, 7-[(2,2-Difluoroethyl)amino]-1-(2,4-difluorophenyl)-4-oxo-N-[(2R)-1,1,1-trifluorobutan-2-yl]-1,4-dihydro-1,8-naphthyridine-3-carboxamide] | 97.7
21 | CCCC(NC(=O)c1cn(-c2ccc(F)cc2F)c2nc(NCC(F)F)ccc2c1=O)C(F)(F)F (centres unmarked) [Example 124, 7-[(2,2-Difluoroethyl)amino]-1-(2,4-difluorophenyl)-4-oxo-N-[1,1,1-trifluoropentan-2-yl]-1,4-dihydro-1,8-naphthyridine-3-carboxamide] | 88.5
22 | O=C(NC(C(F)(F)F)C(F)(F)F)c1cn(-c2ccc(F)cc2F)c2nc(NCC(F)F)ccc2c1=O [Example 126, 7-[(2,2-Difluoroethyl)amino]-1-(2,4-difluorophenyl)-N-(1,1,1,3,3,3-hexafluoropropan-2-yl)-4-oxo-1,4-dihydro-1,8-naphthyridine-3-carboxamide] | 81
23 | O=C(NC12CC3CC(CC(C3)C1)C2)c1cn(-c2ccc(F)cc2F)c2nc(N3CCOC3=O)ccc2c1=O [Example 128, 1-(2,4-Difluorophenyl)-4-oxo-7-(2-oxo-1,3-oxazolidin-3-yl)-N-(tricyclo[3.3.1.1^3,7]dec-1-yl)-1,4-dihydro-1,8-naphthyridine-3-carboxamide] | 91.7
24 | O=C(NC12CC3CC(CC(C3)C1)C2)c1cn(-c2ccc(F)cc2F)c2nc(N3CCSC3)ccc2c1=O [Example 129, 1-(2,4-Difluorophenyl)-4-oxo-7-(1,3-thiazolidin-3-yl)-N-(tricyclo[3.3.1.1^3,7]dec-1-yl)-1,4-dihydro-1,8-naphthyridine-3-carboxamide] | 88.1
25 | O=C(NC12CC3CC(CC(C3)C1)C2)c1cn(-c2ccc(F)cc2F)c2nc(N3CCS(=O)(=O)C3)ccc2c1=O [Example 130, 1-(2,4-Difluorophenyl)-7-(1,1-dioxido-1,3-thiazolidin-3-yl)-4-oxo-N-(tricyclo[3.3.1.1^3,7]dec-1-yl)-1,4-dihydro-1,8-naphthyridine-3-carboxamide] | 90
26 | O=C(NC12CC3CC(CC(C3)C1)C2)c1cn(-c2ccc(F)cc2F)c2nc(N3CC[S+]([O-])C3)ccc2c1=O (centres unmarked) [Example 131, 1-(2,4-Difluorophenyl)-7-(1-oxido-1,3-thiazolidin-3-yl)-4-oxo-N-(tricyclo[3.3.1.1^3,7]dec-1-yl)-1,4-dihydro-1,8-naphthyridine-3-carboxamide] | 89.8
